# Among all 310,000 compounds or so, about 2,200 (0.71%) showed an effect of 50% or more. The effect is printed as a negative number. Some of the results follow.
# Target: human ether-à-go-go-related gene (hERG) potassium channel (human, UniProt Q12809)
# Test: primary screen, population patch clamp on CHO cells stably expressing hERG
# human ether-à-go-go-related gene (hERG) potassium channel, sequence (Q12809 whole entry, looked up): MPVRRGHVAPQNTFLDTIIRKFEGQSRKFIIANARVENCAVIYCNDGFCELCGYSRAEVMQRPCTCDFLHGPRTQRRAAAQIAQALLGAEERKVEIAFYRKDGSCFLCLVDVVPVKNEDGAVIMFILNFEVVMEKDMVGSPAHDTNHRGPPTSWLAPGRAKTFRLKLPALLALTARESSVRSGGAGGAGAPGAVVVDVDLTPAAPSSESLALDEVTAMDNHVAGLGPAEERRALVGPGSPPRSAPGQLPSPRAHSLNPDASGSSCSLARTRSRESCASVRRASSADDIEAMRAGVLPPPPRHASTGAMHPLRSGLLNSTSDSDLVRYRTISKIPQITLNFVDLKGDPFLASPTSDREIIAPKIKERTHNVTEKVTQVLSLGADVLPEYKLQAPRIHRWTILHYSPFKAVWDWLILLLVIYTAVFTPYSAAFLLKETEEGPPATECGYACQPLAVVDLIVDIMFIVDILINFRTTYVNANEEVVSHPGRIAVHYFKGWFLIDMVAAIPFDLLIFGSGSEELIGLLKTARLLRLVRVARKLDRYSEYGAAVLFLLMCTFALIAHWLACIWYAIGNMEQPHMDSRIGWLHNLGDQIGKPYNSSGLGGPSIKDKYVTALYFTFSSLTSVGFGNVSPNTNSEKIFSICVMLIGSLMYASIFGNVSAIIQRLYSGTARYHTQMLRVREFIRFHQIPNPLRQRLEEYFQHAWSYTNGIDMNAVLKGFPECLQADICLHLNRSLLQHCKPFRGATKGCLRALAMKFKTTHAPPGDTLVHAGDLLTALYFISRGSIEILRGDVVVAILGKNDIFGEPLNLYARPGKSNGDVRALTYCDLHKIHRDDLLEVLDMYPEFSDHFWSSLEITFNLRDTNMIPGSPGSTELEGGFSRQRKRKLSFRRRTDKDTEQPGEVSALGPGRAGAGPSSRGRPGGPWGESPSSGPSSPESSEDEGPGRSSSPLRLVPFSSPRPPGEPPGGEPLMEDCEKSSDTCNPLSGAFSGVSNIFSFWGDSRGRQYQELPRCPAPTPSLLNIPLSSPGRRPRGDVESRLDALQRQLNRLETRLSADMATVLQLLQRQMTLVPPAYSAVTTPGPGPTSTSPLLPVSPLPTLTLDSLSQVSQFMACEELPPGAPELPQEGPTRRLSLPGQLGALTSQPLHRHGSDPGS
row,SMILES,"hERG current change (%, negative = inhibition) at 1uM"
1,O=C(NNc1ccc(Cl)nn1)c1ccc(Cl)cc1,1.83%
2,O=S(=O)(Nc1ncn[nH]1)c1ccc2ccccc2c1,6.92%
3,COCCNC(=O)CSc1ccccc1C(=O)NCC1CCCCC1,8.03%
4,O=C(COc1ccccc1)Nc1nnc(S(=O)(=O)N2CCCC2)s1,12.5%
5,N#C/C(=C\c1ccc(Cl)cc1)c1nc2ccccc2o1,1.79%
6,Cc1cnc(C(=O)OCC(=O)Nc2ccc(C)c(S(=O)(=O)N3CCCCCC3)c2)cn1,7.47%
7,CCOC(=O)CSc1nc2c(cnn2-c2ccc(C)cc2)c(=O)[nH]1,8.51%
8,Cc1ccccc1C(N)c1ccncc1.Cl (centres unmarked),11.3%
9,COc1ccccc1CNC(=O)/C=C/c1ccc(Br)o1,-7.25%
10,CC(C)(C)NC(=O)CN(C(=O)CNS(=O)(=O)c1ccccc1)c1ccc2c(c1)OCCO2,11.3%
11,CCCc1cc(=O)[nH]c(SCC(=O)NC2CCCCC2)n1,13.7%
12,O=C(CCc1nc2ccccc2c(=O)[nH]1)OCC(=O)c1ccc(C2CCCCC2)cc1,-1.64%
13,Cc1ccc(C(=O)OCCN(C)Cc2ccccc2)cc1.Cl,-17.1%
14,COc1ccc(CC(=O)NCc2cn3ccsc3n2)cc1,12.3%
15,Cc1ccc(C2=[N+]([O-])C(C)(C)N(O)C2(C)C)cc1,16.8%
16,COc1ccc(-c2c(N)nnc3c2[nH]c2ccccc23)cc1OC.Cl,4.85%
17,CCCC(C)n1[nH]c(=O)c2c(C)cc(C)nc21 (centres unmarked),6.36%
18,CCOC(=O)c1[nH]cnc1C(=O)NC1CCCCC1,19.2%
19,CN(C)CC(C)(C)CNS(=O)(=O)c1cccc2nsnc12,-2.43%
20,COc1ccc(-c2nc(NCCCN(C)C)c3ccccc3n2)cc1.Cl,3.72%
21,Cc1ccccc1N(CC(=O)NC1CCCCC1)C(=O)CNC(=O)c1cccs1,-17.3%
22,COC(=O)COc1cc(C)cc2oc(=O)c(CC(=O)OC)c(C)c12,5.08%
23,CCOCCCNC(=O)C1CCCN(S(=O)(=O)CC)C1 (centres unmarked),1.94%
24,COc1cc(C(=O)Nc2cccc(S(=O)(=O)N3CCCC3)c2)cc(OC)c1C,13.5%
25,CCOc1cc(NC(=O)c2ccccn2)c(OCC)cc1NC(=O)c1ccc(OC)cc1,3.95%
26,O=C(c1ccc([N+](=O)[O-])cc1[N+](=O)[O-])N1CCN(C(=O)C2CCCO2)CC1 (centres unmarked),7.49%
